# Measurements published in PubChem BioAssay (Tox21).
# Several values for one entry are separate records, joined by “and”; a condition that tells them apart may be missing. Identical values can stand only once. Activity calls are given as the source filed them. Entries that show only a call come without a potency. Unless noted, calls come from the whole dose curve; as a rule, active = well fitted curve in the direction sought with a large enough effect in the repeat runs; inconclusive = weak or mixed curves; inactive = no such curve, though single readings can be large; an effect the other way counts as inactive or inconclusive.
# Experiments:
# [1] = biological target: Estrogen receptor (Homo sapiens) (UniProt P03372); experiment: qHTS assay to identify small molecule antagonists of the estrogen receptor alpha (ER-alpha) signaling pathway (AID 743069; active = well fitted curve in the direction sought with a large enough effect in the signal ratio in the repeat runs, not every such curve was filed as active; inconclusive = weak or mixed curves, or effect the other way; inactive = no such curve, though single readings can be large or run the other way; the % refers to the signal ratio; note: potency is the fitted concentration of half-maximal effect); conditions: HEK293 ER-alpha-UAS-bla, beta-lactamase ratio, antagonist mode; activity, negative = inhibition: at 69.4 µM (top of the series) unless noted
# Chain of UniProt P03372 (P03372 whole entry, looked up): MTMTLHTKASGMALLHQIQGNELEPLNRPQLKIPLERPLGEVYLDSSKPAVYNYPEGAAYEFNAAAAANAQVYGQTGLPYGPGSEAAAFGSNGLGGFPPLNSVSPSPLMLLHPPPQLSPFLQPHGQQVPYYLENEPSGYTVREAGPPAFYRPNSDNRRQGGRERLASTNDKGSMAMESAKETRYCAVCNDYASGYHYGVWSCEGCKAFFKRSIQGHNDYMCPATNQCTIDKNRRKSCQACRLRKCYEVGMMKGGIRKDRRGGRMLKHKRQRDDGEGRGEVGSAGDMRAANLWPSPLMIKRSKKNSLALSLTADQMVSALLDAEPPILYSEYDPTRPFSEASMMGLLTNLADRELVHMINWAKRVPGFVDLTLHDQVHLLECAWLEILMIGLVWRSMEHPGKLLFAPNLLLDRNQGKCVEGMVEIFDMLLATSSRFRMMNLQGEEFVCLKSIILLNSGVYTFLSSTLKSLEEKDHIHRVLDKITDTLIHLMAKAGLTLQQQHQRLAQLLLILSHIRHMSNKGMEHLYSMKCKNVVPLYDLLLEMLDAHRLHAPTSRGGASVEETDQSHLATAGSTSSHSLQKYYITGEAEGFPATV
# Procedure, shortened: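 Fluorescence intensity from a beta-lactamase FRET substrate served as the read-out. Cells: HEK293 with stably integrated ER-alpha-UAS-bla reporter. Agonist 17beta-estradiol was co-added with compounds; incubation 18 hr at 37C, substrate 2 hr at room temperature.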
# [2] = qHTS assay to identify small molecule agonists of the constitutive androstane receptor (CAR) signaling pathway - cell viability counter screen (AID 1224836); note: nearly all actives have a fitted effect of over 45% in size
# Procedure, shortened: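 Cells were seeded and incubated 4 hrs. Compounds were added across 15 concentrations together with PK11195 at 0.75 uM final. Plates were incubated 23 hrs at 37 C. CellTiter-Fluor was added and fluorescence measured.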
# [3] = biological target: Vitamin D3 receptor (Homo sapiens) (UniProt P11473); experiment: qHTS assay to identify small molecule agonists of the vitamin D receptor (VDR) signaling pathway (AID 743222; calls by dose curve); conditions: HEK293T VDR-UAS-bla, beta-lactamase FRET ratio, 16 h; activation: at 63.5 µM (top of the series) unless noted
# Chain of UniProt P11473 (P11473 whole entry, looked up): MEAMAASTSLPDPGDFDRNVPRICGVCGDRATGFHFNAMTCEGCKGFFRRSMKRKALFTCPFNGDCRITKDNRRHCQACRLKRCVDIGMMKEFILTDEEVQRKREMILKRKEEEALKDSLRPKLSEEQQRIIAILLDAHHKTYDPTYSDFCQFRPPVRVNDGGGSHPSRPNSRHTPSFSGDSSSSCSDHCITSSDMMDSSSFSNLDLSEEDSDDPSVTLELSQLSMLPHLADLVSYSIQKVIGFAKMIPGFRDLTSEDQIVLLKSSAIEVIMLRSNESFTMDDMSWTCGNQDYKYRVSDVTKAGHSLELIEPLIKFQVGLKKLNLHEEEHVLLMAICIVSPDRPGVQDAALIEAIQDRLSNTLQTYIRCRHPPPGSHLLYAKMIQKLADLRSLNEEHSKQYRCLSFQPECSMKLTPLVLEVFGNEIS
# Procedure, shortened: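 Cells carrying a VDR-driven beta-lactamase reporter are seeded at 2,000 per well and rested 4 h. Compounds in DMSO are added for 16 h at 37C, and FRET substrate fluorescence is measured after 2 h at room temperature.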
# [4] = qHTS assay to identify small molecule antagonists of the sonic hedgehog signaling (Shh) pathway (AID 1259369; calls by dose curve; note: nearly all actives have a fitted effect of over 45% in size; note: potency is the fitted concentration of half-maximal effect)
# Procedure, shortened: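 Cells are plated and held 4hr at 37 C, compounds (DMSO) are pinned in, conditioned medium is added to stimulate the pathway, and after 24hr luciferase reagent is added for 30min before luminescence is read.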
# [5] = biological target: Luciferin 4-monooxygenase (Photinus pyralis) (UniProt P08659); experiment: qHTS assay to identify small molecule inhibitors of firefly luciferase (AID 1224835); note: nearly all actives have a fitted effect of over 25% in size; note: potency is the fitted concentration of half-maximal effect
# Chain of UniProt P08659 (P08659 whole entry, looked up): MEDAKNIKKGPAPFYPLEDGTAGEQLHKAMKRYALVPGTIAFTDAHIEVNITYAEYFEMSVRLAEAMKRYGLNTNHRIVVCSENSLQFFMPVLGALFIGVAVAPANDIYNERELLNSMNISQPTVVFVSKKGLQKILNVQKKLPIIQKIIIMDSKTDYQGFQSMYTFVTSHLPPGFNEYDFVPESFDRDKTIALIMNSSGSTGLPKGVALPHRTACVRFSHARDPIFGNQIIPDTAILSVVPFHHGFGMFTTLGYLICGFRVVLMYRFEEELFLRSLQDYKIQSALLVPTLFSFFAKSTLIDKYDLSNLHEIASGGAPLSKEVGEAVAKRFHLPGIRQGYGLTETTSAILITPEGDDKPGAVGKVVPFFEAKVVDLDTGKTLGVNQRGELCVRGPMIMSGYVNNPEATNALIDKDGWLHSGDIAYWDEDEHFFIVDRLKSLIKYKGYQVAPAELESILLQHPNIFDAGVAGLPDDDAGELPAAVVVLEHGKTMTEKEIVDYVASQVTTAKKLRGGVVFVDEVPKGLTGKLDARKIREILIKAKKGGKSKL
# Procedure, shortened: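 Inhibition of purified Photinus luciferase is measured by luminescence. Substrate levels (D-luciferin, ATP) sit at their KM values. Each compound is tested in a concentration series.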
# [6] = qHTS assay to identify small molecule agonists of H2AX - cell viability counter screen (AID 1224847; calls by dose curve; note: top concentration of the series differs between compounds; nearly all actives have a fitted effect of over 30% in size)
# Procedure, shortened: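 Cytotoxicity counter screen in wild-type CHO-K1 cells: a 3 hr compound treatment at 37C across 15 concentrations, followed by CellTiter-Glo luminescence to gauge viable cells.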
# [7] = biological target: Estrogen receptor beta (Homo sapiens) (UniProt Q92731); experiment: qHTS assay to identify small molecule agonists of the estrogen receptor beta (ER-beta) signaling pathway (AID 1259377; active = well fitted activation curve with a large enough effect in the signal ratio in the repeat runs, not every such curve was filed as active; inconclusive = weak or mixed curves, or effect the other way; the % refers to the signal ratio; note: potency is the fitted concentration of half-maximal effect); conditions: ER-beta-UAS-bla HEK293T, beta-lactamase FRET ratio, 16 h; activation: at 92.4 µM (top of the series) unless noted
# Chain of UniProt Q92731 (Q92731 whole entry, looked up, the tested form may be a part): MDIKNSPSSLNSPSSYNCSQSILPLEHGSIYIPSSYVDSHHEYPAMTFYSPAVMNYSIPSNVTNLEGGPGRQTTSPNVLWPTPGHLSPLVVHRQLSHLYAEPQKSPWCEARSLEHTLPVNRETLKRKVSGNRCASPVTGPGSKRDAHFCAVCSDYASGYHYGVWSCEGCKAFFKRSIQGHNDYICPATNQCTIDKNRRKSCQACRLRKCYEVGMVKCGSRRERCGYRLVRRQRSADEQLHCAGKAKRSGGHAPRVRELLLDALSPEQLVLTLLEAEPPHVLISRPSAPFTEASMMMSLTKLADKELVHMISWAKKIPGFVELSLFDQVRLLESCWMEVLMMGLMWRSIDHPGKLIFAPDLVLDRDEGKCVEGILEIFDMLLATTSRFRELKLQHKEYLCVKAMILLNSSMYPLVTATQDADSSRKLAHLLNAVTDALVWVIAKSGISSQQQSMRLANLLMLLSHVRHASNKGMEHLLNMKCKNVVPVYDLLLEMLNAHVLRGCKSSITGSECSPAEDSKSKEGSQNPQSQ
# Procedure, shortened: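 Agonist mode cell assay in GripTite HEK293T cells expressing an ER-beta fusion that drives beta-lactamase from an Upstream Activator Sequence; 16 hr compound exposure at 37C, then 2 h LiveBLAzer B/G FRET substrate at room temperature, fluorescence read-out.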
# [8] = qHTS assay to identify small molecule antagonists of the estrogen receptor alpha (ER-alpha) signaling pathway - cell viability counter screen (AID 743074; calls by dose curve; note: nearly all actives have a fitted effect of over 45% in size; note: potency is the fitted concentration of half-maximal effect)
# [9] = biological target: Peroxisome proliferator-activated receptor delta (Homo sapiens) (UniProt Q03181); experiment: qHTS assay to identify small molecule agonists of the peroxisome proliferator-activated receptor delta (PPARd) signaling pathway (AID 743212; calls by dose curve;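 note: HEK293H cells with PPARd UAS beta-lactamase reporter GeneBLAzer system; potency is the fitted concentration of half-maximal effect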); conditions: HEK293H PPARd-UAS-bla, beta-lactamase FRET ratio, 17 h; activation: at 62.6 µM (top of the series) unless noted
# Chain of UniProt Q03181 (Q03181 whole entry, looked up): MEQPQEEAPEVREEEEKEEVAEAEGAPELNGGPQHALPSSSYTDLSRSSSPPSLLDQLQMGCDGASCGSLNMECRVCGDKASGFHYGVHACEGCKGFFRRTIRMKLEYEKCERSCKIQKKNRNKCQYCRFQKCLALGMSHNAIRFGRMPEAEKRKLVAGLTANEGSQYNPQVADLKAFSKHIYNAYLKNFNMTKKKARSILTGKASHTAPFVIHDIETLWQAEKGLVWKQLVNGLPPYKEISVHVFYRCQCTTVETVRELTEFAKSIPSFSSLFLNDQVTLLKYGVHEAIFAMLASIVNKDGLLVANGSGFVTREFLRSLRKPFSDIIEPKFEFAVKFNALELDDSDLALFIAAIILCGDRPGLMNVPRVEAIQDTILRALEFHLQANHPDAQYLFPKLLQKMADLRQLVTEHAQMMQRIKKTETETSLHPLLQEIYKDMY
# Procedure, shortened: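 Steps: seed PPARd-bla HEK293H cells; incubate 5 h, 37 C, 5% CO2; add compounds in DMSO; incubate, 37 C; add LiveBLAzer B/G FRET substrate; hold 2 h at room temperature; measure fluorescence.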
# [10] = qHTS RealTime-Glo MT Cell Viability Assay in HEK293 cells - 8 hour (AID 1224887); note: top concentration of the series differs between compounds; nearly all actives have a fitted effect of over 50% in size
# Procedure, shortened: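 Real-time viability in HEK293: signal arises when living cells convert a prosubstrate for NanoLuc in the medium, so luminescence tracks viable cell number. Compound (23 nL, DMSO) added 5 h post-seeding; kinetic reads at 0–40 h, 37 C.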
# [11] = qHTS assay to identify small molecule antagonists of the progesterone receptor (PR) signaling pathway - cell viability counter screen (AID 1346798); note: nearly all actives have a fitted effect of over 50% in size; note: potency is the fitted concentration of half-maximal effect
# Procedure, shortened: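 Counter screen for cytotoxicity: viability of PR-UAS-bla HEK293T cells was measured with CellTiter-Glo luminescence following 16 hr compound exposure in the presence of R5020.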
# [12] = qHTS assay to identify small molecule antagonists of the peroxisome proliferator-activated receptor delta (PPARd) signaling pathway - cell viability counter screen (AID 743213); conditions: PPARd-bla HEK293H viability, CellTiter-Glo luminescence, 17 h; viability change, negative = cytotoxic: at 62 µM (top of the series) unless noted; note: potency is the fitted concentration of half-maximal effect; nearly all actives have a fitted effect of over 50% in size
# Procedure, shortened: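 In this counter screen, HEK293H cells carrying a UAS-beta-lactamase reporter are co-treated with test compounds and 300 nM L165041 (final) for 17 h at 37 C; cell viability is quantified by CellTiter-Glo luminescence.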
# [13] = qHTS assay to identify small molecule agonists of H2AX (AID 1224845; active = well fitted activation curve with a large enough effect in the signal ratio in the repeat runs, not every such curve was filed as active; inconclusive = weak or mixed curves; the % refers to the signal ratio); conditions: CHO-K1 phospho-H2AX Ser139 HTRF, 3 h; activation (H2AX phosphorylation): at 154 µM (top of the series) unless noted
# Procedure, shortened: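 Phospho-H2AX Ser139 measured by HTRF (ex 320 nm; em 665 and 620 nm) after 24 hr antibody incubation. Compounds, 15 concentrations, 0.76% DMSO, were applied to CHO-K1 cells for 3hr at 37C before lysis.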
# [14] = qHTS assay to identify small molecule agonists of the estrogen receptor beta (ER-beta) signaling pathway - cell viability counter screen (AID 1259380); note: potency is the fitted concentration of half-maximal effect; nearly all actives have a fitted effect of over 30% in size
# Procedure, shortened: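 Cytotoxicity is measured in parallel with the reporter screen: after 16 hr compound exposure at 37C and a 2 hr LiveBLAzer step, CellTiter-Glo is added to the same ER-beta-UAS-bla HEK293T wells and luminescence read after 30 min.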
# [15] = qHTS assay for identifying genotoxic compounds that show differential cytotoxicity against isogenic chicken DT40 cell lines with known DNA damage response pathways - Rad54/Ku70 mutant cell line (AID 743015); conditions: DT40 Rad54/Ku70 mutant viability, CellTiter-Glo, 40 h; activity change, negative = cytotoxicity: at 66.8 µM (top of the series) unless noted; note: potency is the fitted concentration of half-maximal effect; nearly all actives have a fitted effect of over 60% in size
# [16] = biological target: Cytochrome P450 2D6 (Homo sapiens) (UniProt P10635); experiment: Cytochrome P450 Family 2 Subfamily D Member 6 (CYP2D6) small molecule antagonists: luciferase reporter qHTS assay (AID 1671196); note: potency is the fitted concentration of half-maximal effect; nearly all actives have a fitted effect of over 50% in size
# Chain of UniProt P10635 (P10635 whole entry, looked up): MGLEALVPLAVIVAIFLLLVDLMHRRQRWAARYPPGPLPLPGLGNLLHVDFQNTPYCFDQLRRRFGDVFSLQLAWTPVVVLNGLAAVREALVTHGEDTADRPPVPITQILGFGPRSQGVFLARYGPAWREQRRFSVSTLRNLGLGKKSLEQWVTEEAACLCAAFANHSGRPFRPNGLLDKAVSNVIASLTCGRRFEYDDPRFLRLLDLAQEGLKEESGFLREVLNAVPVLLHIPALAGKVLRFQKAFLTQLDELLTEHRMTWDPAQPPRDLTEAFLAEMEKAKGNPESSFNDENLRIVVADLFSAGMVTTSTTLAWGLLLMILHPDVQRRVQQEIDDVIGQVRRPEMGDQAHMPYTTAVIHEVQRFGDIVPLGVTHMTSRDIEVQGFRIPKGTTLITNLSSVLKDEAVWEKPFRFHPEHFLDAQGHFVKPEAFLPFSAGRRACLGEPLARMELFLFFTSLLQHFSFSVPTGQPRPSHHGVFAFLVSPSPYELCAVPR
# Procedure, shortened: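 Enzyme and proluciferin substrate were first combined with test chemical for 10 min at room temperature. Adding NADPH regeneration solution started a 1 h reaction, stopped with luciferin detection reagent and read by luminescence 20 min later.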
# Tags give direction and shape of the fitted curve or compound fluorescence and quenching.
structure (smiles),measurement,setting,value
Cc1c(C(=O)c2c[nH]n(C)c2=O)ccc(S(C)(=O)=O)c1C1=NOCC1,"activity, negative = inhibition",[1],inconclusive: 62.3% [at 32.6 µM]
same,Potency,[2],inactive
CCCOc1ccc(C(=O)OCCN(CC)CC)cc1N,Potency,[3],inactive
same,Potency,[4],inactive
COc1ccc([C@@H]2CC(=O)c3c(O)cc(O[C@@H]4O[C@H](CO[C@@H]5O[C@@H](C)[C@H](O)[C@@H](O)[C@H]5O)[C@@H](O)[C@H](O)[C@H]4O)cc3O2)cc1OC,Potency,[5],"inconclusive: 63 µM [inhibitor, partial curve] and inconclusive: 68.5 µM [inhibitor, single point]"
NC(=O)N[C@@H](CCC(=O)O)C(=O)O,Potency,[6],inactive
same,Potency,[4],inactive
O=C(NCC(O)CO)c1c(I)c(C(=O)NCC(O)CO)c(I)c(N(CCO)C(=O)CO)c1I (stereo not drawn),Potency,[7],inactive
CCOC(=O)c1ccccc1OC,Potency,[5],inactive
same,Potency,[4],inactive
same,activation,[7],inconclusive: 10.9%
C=C(C)C1CCC(C)(O)CC1 (stereo not drawn),Potency,[8],inactive
same,Potency,[9],"inconclusive: 21.9 µM [rising, partial curve, poor fit]"
same,Potency,[5],inactive
same,Potency,[10],inactive
same,Potency,[11],"inconclusive: 27.3 µM [rising, single point]"
COCc1nnc(-c2ccc[n+]([O-])c2)n1-c1c(Cl)c(Cl)cc2[nH]c(=O)c(=O)[nH]c12,Potency,[7],"inconclusive: 27.3 µM [activator, partial curve]"
C[C@H](NC(CCc1ccccc1)C(=O)O)C(=O)N1CCC[C@H]1C(=O)O (stereo partly drawn),Potency,[8],"inconclusive: 10.7 µM [rising, single point]"
same,Potency,[12],"inconclusive: 0.0188 µM [cytotoxic, full curve, poor fit]"
same,Potency,[2],inactive
same,Potency,[13],inactive
same,Potency,[11],inactive
CCOc1nc2cccc(C(=O)O)c2n1Cc1ccc(-c2ccccc2-c2nn[nH]n2)cc1,Potency,[1],active: 0.425 µM [inconclusive]
same,Potency,[5],inactive
same,Potency,[10],inactive
same,Potency,[14],"inconclusive: 33.5 µM [rising, single point]"
same,Potency,[11],"inconclusive: 1.19 µM [cytotoxic, full curve, poor fit]"
CO,Potency,[8],"inconclusive: 1.69 µM [rising, full curve, poor fit]"
same,Potency,[2],inactive
same,Potency,[10],inactive
c1ccc(-c2nc[nH]c2-c2ccccc2)cc1,Potency,[15],"inconclusive: 33.5 µM [cytotoxic, single point]"
same,activation,[3],inconclusive: -14%
same,Potency,[5],inactive
same,Potency,[4],"inconclusive: 21.1 µM [inhibitor, partial curve]"
same,Potency,[16],"inconclusive: 24.5 µM [inhibitor, partial curve]"
CC(O)CC(C)O (stereo not drawn),Potency,[2],inactive
same,Potency,[6],inactive
same,Potency,[4],inactive
